Reference: article PMC5992981
No constants are given. Whether binding was seen depends on the method and setting. In cells and extracts the contact can be indirect. Some entries that bind do so weakly or less than the wild type. For some of these results: Sequences can lack the tags named with a protein. Values belong to the molecule of their own block, whether it stands above or below them.

Amino acid sequences for entries named in this document (tags omitted). Residues count along the entry.
UniProt P25911: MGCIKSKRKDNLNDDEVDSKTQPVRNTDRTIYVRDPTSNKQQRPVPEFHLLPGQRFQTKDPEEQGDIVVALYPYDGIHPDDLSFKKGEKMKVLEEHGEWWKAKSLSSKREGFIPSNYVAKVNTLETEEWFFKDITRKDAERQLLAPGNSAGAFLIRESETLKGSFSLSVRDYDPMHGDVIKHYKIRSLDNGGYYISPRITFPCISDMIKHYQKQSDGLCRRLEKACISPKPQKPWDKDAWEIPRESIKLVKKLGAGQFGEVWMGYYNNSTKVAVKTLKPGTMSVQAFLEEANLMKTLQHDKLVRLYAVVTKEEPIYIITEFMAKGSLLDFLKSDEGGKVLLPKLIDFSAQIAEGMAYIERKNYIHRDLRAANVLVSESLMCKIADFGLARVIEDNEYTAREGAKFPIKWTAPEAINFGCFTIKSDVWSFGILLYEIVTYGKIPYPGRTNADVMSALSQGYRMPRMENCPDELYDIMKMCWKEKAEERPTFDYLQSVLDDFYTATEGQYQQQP
UniProt P29351: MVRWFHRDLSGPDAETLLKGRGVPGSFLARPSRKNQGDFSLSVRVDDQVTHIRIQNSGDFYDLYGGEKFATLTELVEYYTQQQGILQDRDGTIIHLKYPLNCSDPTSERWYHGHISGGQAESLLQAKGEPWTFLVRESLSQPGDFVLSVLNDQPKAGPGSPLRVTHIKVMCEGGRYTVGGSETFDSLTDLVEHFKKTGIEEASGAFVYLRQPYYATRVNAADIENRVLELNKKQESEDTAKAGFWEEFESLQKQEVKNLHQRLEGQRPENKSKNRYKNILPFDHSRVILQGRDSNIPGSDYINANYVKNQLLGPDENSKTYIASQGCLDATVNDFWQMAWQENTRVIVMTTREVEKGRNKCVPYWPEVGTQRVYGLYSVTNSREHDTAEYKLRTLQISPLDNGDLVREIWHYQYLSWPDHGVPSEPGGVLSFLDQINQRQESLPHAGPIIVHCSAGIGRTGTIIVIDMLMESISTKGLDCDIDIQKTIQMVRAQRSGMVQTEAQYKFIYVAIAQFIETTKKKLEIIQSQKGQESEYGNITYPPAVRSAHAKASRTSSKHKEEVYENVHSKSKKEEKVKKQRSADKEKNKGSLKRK
UniProt P05555, residues 17-1153: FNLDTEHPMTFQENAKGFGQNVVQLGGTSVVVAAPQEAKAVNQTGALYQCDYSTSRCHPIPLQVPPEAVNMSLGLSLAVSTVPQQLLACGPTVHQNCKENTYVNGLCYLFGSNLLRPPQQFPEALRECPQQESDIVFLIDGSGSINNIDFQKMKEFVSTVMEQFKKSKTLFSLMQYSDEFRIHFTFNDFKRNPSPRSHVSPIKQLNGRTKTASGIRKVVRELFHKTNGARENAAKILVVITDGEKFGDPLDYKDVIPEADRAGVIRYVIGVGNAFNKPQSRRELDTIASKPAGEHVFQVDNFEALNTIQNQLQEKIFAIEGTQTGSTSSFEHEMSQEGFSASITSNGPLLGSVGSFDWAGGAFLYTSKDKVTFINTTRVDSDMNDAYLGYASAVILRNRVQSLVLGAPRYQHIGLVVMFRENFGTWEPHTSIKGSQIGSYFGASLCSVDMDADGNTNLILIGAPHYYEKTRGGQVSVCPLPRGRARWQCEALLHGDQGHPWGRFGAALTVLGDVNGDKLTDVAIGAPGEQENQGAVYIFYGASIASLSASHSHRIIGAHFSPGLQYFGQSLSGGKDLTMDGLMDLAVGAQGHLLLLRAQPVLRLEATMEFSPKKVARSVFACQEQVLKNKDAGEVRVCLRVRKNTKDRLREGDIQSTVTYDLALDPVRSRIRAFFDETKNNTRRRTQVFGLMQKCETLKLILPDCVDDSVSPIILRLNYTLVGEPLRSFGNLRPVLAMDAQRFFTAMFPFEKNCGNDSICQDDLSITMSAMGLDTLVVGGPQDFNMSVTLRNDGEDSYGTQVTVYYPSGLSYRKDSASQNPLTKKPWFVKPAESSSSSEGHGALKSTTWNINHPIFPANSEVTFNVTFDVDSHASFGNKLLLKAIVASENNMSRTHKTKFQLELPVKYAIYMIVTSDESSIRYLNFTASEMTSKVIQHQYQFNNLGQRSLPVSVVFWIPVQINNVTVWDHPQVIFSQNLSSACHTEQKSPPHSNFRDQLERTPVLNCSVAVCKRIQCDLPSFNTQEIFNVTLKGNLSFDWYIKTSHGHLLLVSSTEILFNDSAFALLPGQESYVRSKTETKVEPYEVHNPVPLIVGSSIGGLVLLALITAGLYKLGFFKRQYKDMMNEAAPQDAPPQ

How the values were obtained:
[1] = biological target: T1, macrophage-inducible C-type lectin (Mincle), V5-tagged (mouse (cDNA from BMMs of mice)) (UniProt Q9R0Q8); experiment: co-IP; iBMM cells stably expressing Mincle-V5, stimulated with TDM for the indicated times; NP-40 lysis buffer; V5 agarose overnight at 4 °C; immunoblot
T1 sequence: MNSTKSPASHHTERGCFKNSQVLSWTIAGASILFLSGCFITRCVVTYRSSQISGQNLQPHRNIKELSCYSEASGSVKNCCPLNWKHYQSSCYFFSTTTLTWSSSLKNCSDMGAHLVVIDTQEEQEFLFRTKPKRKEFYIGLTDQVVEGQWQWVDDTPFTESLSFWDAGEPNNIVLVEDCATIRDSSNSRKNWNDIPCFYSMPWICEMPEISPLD

[2] = biological target: Lyn kinase, endogenous (mouse (endogenous in BMM and iBMM)) (UniProt P25911); experiment: co-IP; endogenous proteins in WT BMMs after TDM stimulation; NP-40 lysis buffer; agarose-A beads with Lyn or SHP1 antibodies overnight at 4 °C; immunoblot
[3] = biological target: SHP1, endogenous (mouse (endogenous in iBMM and BMM)) (UniProt P29351); experiment: as above
[4] = biological target: T1, macrophage-inducible C-type lectin (Mincle), V5-tagged (mouse (cDNA from BMMs of mice)); experiment: proximity ligation; Duolink in situ PLA in WT iBMMs transfected for 24 h and seeded on TDM-coated slides (TDM 50 ug/ml, 12-24 h; fibrinogen 30 min as a further stimulus in Figure 4c); fixed in 4% paraformaldehyde; for pairs called independent of TDM also without TDM
[5] = biological target: Lyn kinase, HA-tagged (mouse (cDNA from BMMs of mice)) (UniProt P25911); experiment: as above
[6] = biological target: Lyn kinase, HA-tagged (mouse (cDNA from BMMs of mice)) (UniProt P25911); experiment: proximity ligation; Duolink in situ PLA in WT iBMMs under resting (basal) conditions, without TDM
[7] = biological target: Lyn kinase, HA-tagged (mouse (cDNA from BMMs of mice)) (UniProt P25911); experiment: proximity ligation; Duolink in situ PLA in WT iBMMs transfected for 24 h and seeded on TDM-coated slides (TDM 50 ug/ml, 12-24 h; fibrinogen 30 min as a further stimulus in Figure 4c); fixed in 4% paraformaldehyde; for pairs called independent of TDM also without TDM; remark: listed apart in the source
[8] = biological target: integrin CD11b, Flag-tagged (mouse (cDNA from BMMs of mice)) (UniProt P05555); experiment: as above
[9] = biological target: SH2 domain-containing phosphatase 1 (SHP1), Flag-tagged (mouse (cDNA from BMMs of mice)) (UniProt P29351); experiment: as above
[10] = biological target: T1, macrophage-inducible C-type lectin (Mincle), V5-tagged (mouse (cDNA from BMMs of mice)); experiment: as above; remark: listed apart in the source
[11] = biological target: T1, macrophage-inducible C-type lectin (Mincle), V5-tagged (mouse (cDNA from BMMs of mice)); experiment: proximity ligation; Duolink in situ PLA in Lyn-/- iBMMs stimulated with TDM
[12] = biological target: integrin CD11b, Flag-tagged (mouse (cDNA from BMMs of mice)) (UniProt P05555); experiment: as above
[13] = biological target: T1, macrophage-inducible C-type lectin (Mincle), V5-tagged (mouse (cDNA from BMMs of mice)); experiment: proximity ligation; Duolink in situ PLA in Syk-/- iBMMs stimulated with TDM
[14] = biological target: integrin CD11b, Flag-tagged (mouse (cDNA from BMMs of mice)) (UniProt P05555); experiment: as above
[15] = biological target: integrin CD11b, Flag-tagged (mouse (cDNA from BMMs of mice)) (UniProt P05555); experiment: proximity ligation; Duolink in situ PLA in WT iBMMs under resting (basal) conditions, without TDM
[16] = biological target: SH2 domain-containing phosphatase 1 (SHP1), Flag-tagged (mouse (cDNA from BMMs of mice)) (UniProt P29351); experiment: as above
[17] = biological target: Lyn kinase, HA-tagged (mouse (cDNA from BMMs of mice)) (UniProt P25911); experiment: as above; remark: listed apart in the source

binding [1]: binds
Molecule: SHP1, endogenous (from UniProt P29351 1-595) (enzyme)

binding [2]: binds
binding [3]: binds
binding [1]: binds
Molecule: integrin CD11b, endogenous (from UniProt P05555 17-1153) (receptor)

binding [4]: binds
binding [5]: binds
Molecule: integrin CD11b, Flag-tagged (from UniProt P05555 17-1153) (receptor)
binding [6]: no binding (condition: without TDM stimulation)

binding [7]: no binding
B1: SH2 domain-containing 5'-inositol phosphatase (SHIP1), Myc-tagged (enzyme, UniProt Q9ES52 1-1191)
chain: MPAMVPGWNHGNITRSKAEELLSRAGKDGSFLVRASESIPRAYALCVLFRNCVYTYRILPNEDDKFTVQASEGVPMRFFTKLDQLIDFYKKENMGLVTHLQYPVPLEEEDAIDEAEEDTVESVMSPPELPPRNIPMSAGPSEAKDLPLATENPRAPEVTRLSLSETLFQRLQSMDTSGLPEEHLKAIQDYLSTQLLLDSDFLKTGSSNLPHLKKLMSLLCKELHGEVIRTLPSLESLQRLFDQQLSPGLRPRPQVPGEASPITMVAKLSQLTSLLSSIEDKVKSLLHEGSESTNRRSLIPPVTFEVKSESLGIPQKMHLKVDVESGKLIVKKSKDGSEDKFYSHKKILQLIKSQKFLNKLVILVETEKEKILRKEYVFADSKKREGFCQLLQQMKNKHSEQPEPDMITIFIGTWNMGNAPPPKKITSWFLSKGQGKTRDDSADYIPHDIYVIGTQEDPLGEKEWLELLRHSLQEVTSMTFKTVAIHTLWNIRIVVLAKPEHENRISHICTDNVKTGIANTLGNKGAVGVSFMFNGTSLGFVNSHLTSGSEKKLRRNQNYMNILRFLALGDKKLSPFNITHRFTHLFWLGDLNYRVELPTWEAEAIIQKIKQQQYSDLLAHDQLLLERKDQKVFLHFEEEEITFAPTYRFERLTRDKYAYTKQKATGMKYNLPSWCDRVLWKSYPLVHVVCQSYGSTSDIMTSDHSPVFATFEAGVTSQFVSKNGPGTVDSQGQIEFLACYATLKTKSQTKFYLEFHSSCLESFVKSQEGENEEGSEGELVVRFGETLPKLKPIISDPEYLLDQHILISIKSSDSDESYGEGCIALRLETTEAQHPIYTPLTHHGEMTGHFRGEIKLQTSQGKMREKLYDFVKTERDESSGMKCLKNLTSHDPMRQWEPSGRVPACGVSSLNEMINPNYIGMGPFGQPLHGKSTLSPDQQLTAWSYDQLPKDSSLGPGRGEGPPTPPSQPPLSPKKFSSSTANRGPCPRVQEARPGDLGKVEALLQEDLLLTKPEMFENPLYGSVSSFPKLVPRKEQESPKMLRKEPPPCPDPGISSPSIVLPKAQEVESVKGTSKQAPVPVLGPTPRIRSFTCSSSAEGRMTSGDKSQGKPKASASSQAPVPVKRPVKPSRSEMSQQTTPIPAPRPPLPVKSPAVLQLQHSKGRDYRDNTELPHHGKHRQEEGLLGRTAMQ

binding [8]: binds
binding [9]: binds
binding [7]: binds
B2: Pirb (receptor, UniProt P97484 25-841)
chain: SLPKPILRVQPDSVVSRRTKVTFLCEETIGANEYRLYKDGKLYKTVTKNKQKPENKAEFSFSNVDLSNAGQYRCSYSTQYKSSGYSDLLELVVTGHYWTPSLLAQASPVVTSGGYVTLQCESWHNDHKFILTVEGPQKLSWTQDSQYNYSTRKYHALFSVGPVTPNQRWICRCYSYDRNRPYVWSPPSESVELLVSGNLQKPTIKAEPGSVITSKRAMTIWCQGNLDAEVYFLHNEKSQKTQSTQTLQEPGNKGKFFIPSVTLQHAGQYRCYCYGSAGWSQPSDTLELVVTGIYEYYEPRLSVLPSPVVTAGGNMTLHCASDFPYDKFILTKEDKKFGNSLDTEHISSSGQYRALFIIGPTTPTHTGAFRCYGYYKNAPQLWSVPSALQQILISGLSKKPSLLTHQGHILDPGMTLTLQCFSDINYDRFALHKVGGADIMQHSSQQTDTGFSVANFTLGYVSSSTGGQYRCYGAHNLSSEWSASSEPLDILITGQLPLTPSLSVQPNHTVHSGETVSLLCWSMDSVDTFILSKEGSAQQPLRLKSKSHDQQSQAEFSMSAVTSHLSGTYRCYGAQDSSFYLLSSASAPVELTVSGPIETSTPPPTMSMPLGGLHMYLKALIGVSVAFILFLFIFIFILLRRRHRGKFRKDVQKEKDLQLSSGAEEPITRKGELQKRPNPAAATQEESLYASVEDMQTEDGVELNSWTPPEEDPQGETYAQVKPSRLRKAGHVSPSVMSREQLNTEYEQAEEGQGANNQAAESGESQDVTYAQLCSRTLRQGAAASPLSQAGEAPEEPSVYATLAAARPEAVPKDMEQ

binding [10]: binds
binding [8]: binds
binding [9]: binds
binding [7]: binds
binding [11]: binds weakly
binding [12]: binds weakly
binding [13]: binds weakly
binding [14]: binds weakly
B3: SIRPα, endogenous (receptor, UniProt P97797 32-513)
chain: KELKVTQPEKSVSVAAGDSTVLNCTLTSLLPVGPIRWYRGVGPSRLLIYSFAGEYVPRIRNVSDTTKRNNMDFSIRISNVTPADAGIYYCVKFQKGSSEPDTEIQSGGGTEVYVLAKPSPPEVSGPADRGIPDQKVNFTCKSHGFSPRNITLKWFKDGQELHPLETTVNPSGKNVSYNISSTVRVVLNSMDVNSKVICEVAHITLDRSPLRGIANLSNFIRVSPTVKVTQQSPTSMNQVNLTCRAERFYPEDLQLIWLENGNVSRNDTPKNLTKNTDGTYNYTSLFLVNSSAHREDVVFTCQVKHDQQPAITRNHTVLGFAHSSDQGSMQTFPDNNATHNWNVFIGVGVACALLVVLLMAALYLLRIKQKKAKGSTSSTRLHEPEKNAREITQVQSLIQDTNDINDITYADLNLPKEKKPAPRAPEPNNHTEYASIETGKVPRPEDTLTYADLDMVHLSRAQPAPKPEPSFSEYASVQVQRK
binding [15]: no binding (condition: without TDM stimulation)
binding [16]: no binding (condition: without TDM stimulation)
binding [17]: no binding (condition: without TDM stimulation)
